# According to the supplement of paper PMC3334620:
# Over roughly 33,000 sequences, “E-score (-0.5 to 0.5)” has its median near -0.035; the highest 2% begin near 0.34. Some of the results follow.
# Target: T1, Mot3 (UniProt P54785)
# T1 sequence: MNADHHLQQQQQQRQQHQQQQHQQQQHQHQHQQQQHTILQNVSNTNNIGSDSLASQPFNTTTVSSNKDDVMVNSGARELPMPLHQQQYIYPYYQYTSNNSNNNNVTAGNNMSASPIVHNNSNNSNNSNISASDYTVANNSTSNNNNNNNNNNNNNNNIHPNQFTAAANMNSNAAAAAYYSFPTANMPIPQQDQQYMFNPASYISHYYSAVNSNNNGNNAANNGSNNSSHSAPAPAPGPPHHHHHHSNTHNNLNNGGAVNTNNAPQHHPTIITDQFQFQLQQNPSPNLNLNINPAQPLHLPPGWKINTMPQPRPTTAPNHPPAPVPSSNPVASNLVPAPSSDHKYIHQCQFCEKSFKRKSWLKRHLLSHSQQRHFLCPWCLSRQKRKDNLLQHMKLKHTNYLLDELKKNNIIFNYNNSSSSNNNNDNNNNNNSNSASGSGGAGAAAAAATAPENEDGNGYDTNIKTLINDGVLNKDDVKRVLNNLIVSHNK
# Test: PBM E-score (8-mer binding enrichment) (E-score (-0.5 to 0.5)); higher = stronger / more preferred TF binding; most listed sequences are background and not binding sites
# Conditions: protein concentration: 200 nM; construct: GST-full length
# Description: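 Universal 'all 10-mer' protein binding microarrays (Agilent AMADID 015681) probed with GST-tagged S. cerevisiae TFs (full-length or DBD) made by in vitro transcription/translation (PURExpress), about 100-200 nM. Bound TF was detected with fluorescent anti-GST. Each ungapped 8-mer (which stands for itself and its reverse complement) is scored by the PBM enrichment score (E-score), a modified Wilcoxon-Mann-Whitney statistic from -0.5 to +0.5, computed with the Universal PBM Analysis Suite. Scale: above 0.35 generally sequence-specific binding.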
row,Sequence,PBM E-score
1,GGCCGTCA,-0.358
2,GAAATCTC,-0.0926
3,CTCTTGGA,-0.121
4,ATTGACTA,-0.0876
5,CCAGGGAG,-0.12
6,GTCTCCCA,-0.157
7,ACGCTCTG,-0.0722
8,CCACCATA,-0.17
9,ATTTGATG,0.0601
10,ACGTTAAC,0.25
11,CGAAGATA,-0.108
12,ACATTCAC,0.16
13,CACCGCTC,-0.252
14,ACTTTGAA,-0.173
15,GTCGAACA,0.0718
16,CAGTAGTC,-0.212
17,ACTTAGCG,0.0555
18,AGGCAAAC,0.482
19,ATAAGGGC,-0.015
20,ATCACCAC,-0.158
21,CCTTCTCG,0.0264
22,CAGAGAGG,-0.295
23,GGAGTGAC,0.0443
24,GTGCACGA,0.0362
25,ATGATATG,0.106

row,Sequence,PBM E-score
1,ATTTGACC,-0.118
2,ACACAGTA,0.278
3,AAGTCTAG,-0.261
4,ACCATGAC,-0.0808
5,GCGGAAAA,-0.0405
6,AAGACAAC,0.032
7,GCAAGGAC,-0.0881
8,GCACCTGA,0.0666
9,AGATGAGA,-0.147
10,CTGATATC,0.00984
11,AATCTAAA,0.107
12,ACAGAACT,-0.0328
13,AACGATGG,-0.148
14,ACCCTGAT,-0.0337
15,AATATGAC,0.0135
16,CCTATTAA,0.273
17,ACCGTTAG,-0.00592
18,AGCCAATG,-0.165
19,CAGATAAC,0.047
20,CTCTCAGA,-0.0822
21,ACTCGTGG,-0.064
22,AATTATTG,0.11
23,CCCTGCCG,-0.377
24,GAGGAGGA,-0.158
25,GTGTCGTA,0.203

row,Sequence,PBM E-score
1,ACCGGTAA,-0.164
2,CCACGGGG,-0.197
3,CCGCCAAC,-0.231
4,GTGAGAAA,-0.13
5,GTTAGAAA,0.0575
6,AAACAACC,0.103
7,AAAGAGTT,-0.0531
8,CCCGCATA,-0.0498
9,GCCGTACA,0.0115
10,ATTTCTGC,0.0635
11,CTTAAGCA,0.104
12,AGAGAGGA,-0.246
13,GTCGGTCA,-0.239
14,ATTCAGAG,-0.077
15,CACGAGAC,-0.0972
16,CCGAACTA,0.0366
17,AGAATCGA,-0.245
18,CGTATCAG,0.0545
19,AAACGGTT,0.00323
20,CGGGTCAC,-0.293
21,ACGCCTAG,0.0792
22,AAAGTCCG,-0.134
23,AACTTGGT,0.0776
24,AGACTGAA,-0.159
25,CCCGTTCG,-0.208

row,Sequence,PBM E-score
1,ACCTCCAT,-0.162
2,ACACGCGA,0.292
3,CTTATGTA,0.342
4,ATCCAGCC,-0.162
5,TAACGTAA,0.238
6,CCCGGACA,-0.107
7,TAGATTCA,0.0881
8,GTGCCGTA,-0.114
9,GGTACGCA,0.184
10,CTTTTAAC,0.179
11,GTGCGTCA,-0.09
12,CAACTAGC,0.0864
13,CGGACAGA,-0.168
14,AGATGGTA,-0.0476
15,CAAGGGAC,-0.127
16,CACGGGTA,0.109
17,ATATCACA,-0.0131
18,AAACGTAA,0.196
19,TATTCAGA,0.0385
20,ATCGTTCC,-0.0114
21,ACCCTTAG,-0.233
22,AGCGTCTG,-0.287
23,CGTGGCGC,-0.105
24,GCGGGACA,-0.169
25,AGTTACAT,0.289

row,Sequence,PBM E-score
1,CTGCTAAA,-0.0457
2,AAAGGATG,0.0728
3,TACCAATA,-0.253
4,GAGTTCAC,0.0255
5,AAAAAGCA,0.165
6,CCCCCTAA,-0.283
7,TCACTACA,0.211
8,CCACATAG,-0.075
9,AAAGTCAC,0.135
10,AGAACGAC,-0.0101
11,AAACGAAT,0.0906
12,CAGTAAGG,-0.0249
13,CTTAGCGC,0.0443
14,CAGGTATG,-0.0119
15,AGTATTGG,-0.132
16,CGCTCGAC,-0.122
17,CTCCTGAC,-0.137
18,TCGGATCA,-0.0262
19,GGACCGCC,-0.212
20,ACCGTGCT,-0.11
21,GATGGGCC,-0.21
22,ATAGTCCG,-0.0291
23,GATGAACC,-0.163
24,CGTCAGCC,-0.16
25,CGAACAAC,0.158

row,Sequence,PBM E-score
1,ATAATACA,0.277
2,TAAGAGAA,0.0821
3,TGAACACA,0.249
4,GATGGCTA,-0.231
5,AGTCATAG,-0.191
6,AGGCTAGC,-0.225
7,AGTTCTAG,-0.215
8,AACTTCAC,0.206
9,CCCTTTCG,0.013
10,ATACTACC,-0.0241
11,AAAGACAC,0.157
12,ATGTAACG,0.268
13,CAGCCAAG,-0.0608
14,AACTGGGG,-0.146
15,AGAACTTA,0.0806
16,CTCTACTC,-0.0283
17,AAACTAGA,0.0148
18,GTTAGAGA,-0.15
19,AATTCCCA,0.0871
20,AGACCATG,-0.0413
21,ATAGGTAC,0.406
22,CTTTCGAA,-0.233
23,ACCTAGGG,-0.188
24,CTCTGTGA,0.0651
25,CGTACCAA,-0.00968

row,Sequence,PBM E-score
1,GTGGACGA,-0.178
2,AAACAGCG,0.0286
3,ACGTGATG,0.0947
4,ACCACGAA,-0.00626
5,AGAGCCGA,-0.136
6,AGCTTTCC,-0.00795
7,ATCCGAAC,-0.281
8,GGCTATTA,0.149
9,CTAGTACA,0.287
10,AGGTGAGA,-0.129
11,ACTGCGCG,-0.24
12,AAATACTG,-0.108
13,AGCCGTCG,-0.0837
14,AGGGAAGA,-0.264
15,CAAGTATA,0.159
16,CATACGGG,-0.0526
17,CACGGAGG,0.221
18,AGGAAAAC,0.416
19,CTCACTGC,-0.176
20,ATGGCAGC,-0.133
21,AGGGAATC,-0.109
22,ATAACGAT,-0.0363
